B1: LINE1-mini (parent)
chain: GGCAGAGCUCAACACAGCGUGGCAAAGUGGCUGUGGCUAGACUGCC

The source gives no read counts; variants with many changes may rest on few reads.

Variants of B1 are the subject of this data set. Briefly: self-cleavage, relative activity (ratio to wild type); higher = more cleavage; in vitro, sequencing; the parent is a self-cleaving ribozyme.
Turning to GGCAGAGCUCUACACAGCGUGGCAAAGUCGCUGUGGAUAGACUGCC [A11U G29C C37A], the self-cleavage is 0.

On to GGCAGAGCUCACCACAGCGUGGCCAAGUGCCUGUGGCUAGACUGCU [A12C A24C G30C C46U], for which the self-cleavage stood at 0.01.

With GGCAGAGCUCUACACAGCGUGGGAAAGUCGUUGUGGCUAAACUGCC [A11U C23G G29C C31U G40A], the self-cleavage is 0.

GGCAGAGCUCUACACAGCGUGGCAAAAGGGCUGUGGCUAGACUGCA [A11U G27A U28G C46A]: the self-cleavage came out at 0.02.

Consider GGCAGAGCUCACCACAGCGUGGCACAGUGGCUGUGGCAUGACUGCC [A12C A25C U38A A39U], for which the self-cleavage came to 0.01.

In the case of GGCAGAGCUCACCAUAGCGUGGCAAAGUGGCUGUGGCUAUAAUGCC [A12C C15U G40U C42A], the self-cleavage came out at 0.02.

Turning to GGCAGAGCUCACCAAAGCGUGGCAAAGUGGCUUUGGCUAGACUGCC [A12C C15A G33U], the self-cleavage came to 0.02.

On to GGCAGAGCUCACCACGCCGUGGCAAAGUAGCUGUGGCUAGACUGCC [A12C A16G G17C G29A], for which the self-cleavage came to 0.02.

Turning to GGCAGAGCUCUACACAGCGUGCCAAAGUGGCUGAGGCUAGACUGCC [A11U G22C U34A], the self-cleavage was found to be 0.

For the variant GGCAGAGCUCUACACAACGUGGCAAAGUGGCUGUGUCUAGACUGCC [A11U G17A G36U], the self-cleavage amounted to 0.

Turning to GGCAGAGCUCUACACAGCGUGGCAAAGUGUAUGUGGGUAGACUGCC [A11U G30U C31A C37G], the self-cleavage is 0.02.

Regarding GGCAGAGCUCUACACAGCGUCGCCCAGUGGCUGUGGCUAUACUGCC [A11U G21C A24C A25C G40U], the self-cleavage was found to be 0.01.

GGCAGAGCUCUACACAGCGUGGCAAAGUGUCUGUGUCUAGACUGCC [A11U G30U G36U]: the self-cleavage is 0.95.

Take GGCAGAGCUCUACACAGCGUGUCAAAGUCGCUGUGGCUCGACUGCC [A11U G22U G29C A39C]: the self-cleavage stood at 0.02.

Take GGCAGAGCUCACCACAGCGUGGCAAAGUGGUUGUGGCUGGAGUGCC [A12C C31U A39G C42G]: the self-cleavage worked out at 0.

For the variant GGCAGAGCUCACCCCAGCGUGGUAAAGUGGCUGUGGCUAUACUGCC [A12C A14C C23U G40U], the self-cleavage was 0.04.

Turning to GGCAGAGCUCUACACAGCGUGGCAAAGUGGGUGGGGAUUGACUGCC [A11U C31G U34G C37A A39U], the self-cleavage is 0.

As for GGCAGAGCUCACCACAGGGUGGCGAAGUGGCUGUGGCUAGACUGCC [A12C C18G A24G], the self-cleavage was 0.02.

For the variant GGCAGAGCUCUACACAUCGUGGCAAAGUGGCUGAGGCUAGACUGCC [A11U G17U U34A], the self-cleavage worked out at 0.02.

As to GGCAGAGCUCUACACAGCGUCGCAGAGUGUCUAUGGCUAGACUGCC [A11U G21C A25G G30U G33A], the self-cleavage worked out at 0.

For GGCAGAGCUCUACACAGCCUGGCAAAGUGGCUGUGGCUAGACUGCA [A11U G19C C46A], the self-cleavage turned out to be 0.57.

Take GGCAGAGCUCUACACAGCGUGGCAAAGUGUCUUUUGCUAGACUGUC [A11U G30U G33U G35U C45U]: the self-cleavage was determined as 0.01.

Regarding GGCAGAGCUCACCACCGAGUGGCAACGUGGCUGUGGCUGGACUGCC [A12C A16C C18A A26C A39G], the self-cleavage was found to be 0.01.

Turning to GGCAGAGCUCACCACAGCGUGGCAAAGUGGUUGUGGCUACACUGCC [A12C C31U G40C], the self-cleavage came to 0.

Consider GGCAGAGCUCACGACAGCGUGGCAAAGUGGCUCUGGCUAGACUGCC [A12C C13G G33C], for which the self-cleavage is 0.02.

On to GGCAGAGCUCUACACAGCGUGGCAAAGUGGCUGUGGUUAAACUGCC [A11U C37U G40A], for which the self-cleavage was determined as 0.03.

On to GGCAGAGCUCUACACAGCGUGGCAAAAUGGCUGUGGCUCGACCGCC [A11U G27A A39C U43C], for which the self-cleavage was 0.01.

Regarding GGCAGAGCUCACCACAGCGUGGCAUCGUGGCUGUGGCUAGACUGCC [A12C A25U A26C], the self-cleavage stood at 0.02.

As to GGCAGAGCUCUACACAGCGUGGCAAAGUCUUUGUGGCUAGACUGCC [A11U G29C G30U C31U], the self-cleavage was 0.

On to GGCAGAGCUCUACACAGCGUUGCAAAGUGGCUGUGGCUUGACUGCC [A11U G21U A39U], for which the self-cleavage was 0.16.

As for GGCAGAGCUCACCACAGCGUGGCACAGUGGCUGAGGCUAGACUGCA [A12C A25C U34A C46A], the self-cleavage stood at 0.01.

In the case of GGCAGAGCUCUACACAGCGUGGCAAAGUGGCGGUGGCGAGACUGCG [A11U U32G U38G C46G], the self-cleavage is 0.

In the case of GGCAGAGCUCUACACAGCGUGACAAAGUGGCUCUUGCUAGAUUGCC [A11U G22A G33C G35U C42U], the self-cleavage is 0.01.

With GGCAGAGCUCUACACAGCGUGGCAAAAUUGCUGUGGCUAGACUGCC [A11U G27A G29U], the self-cleavage stood at 0.17.

As for GGCAGAGCUCUACACAGCGUGGCAAAAUCGCUGUGGCUAGACUGCC [A11U G27A G29C], the self-cleavage was determined as 0.03.

Take GGCAGAGCUCACCACAGAGUGGCAAGGUGGCUGUAGCUAGAGUGCG [A12C C18A A26G G35A C42G C46G]: the self-cleavage was 0.01.

Take GGCAGAGCUCUACACAGCGUGACAAAGUGGACGUGGCUAGACUGCC [A11U G22A C31A U32C]: the self-cleavage is 0.01.

Turning to GGCAGAGCUCUACACAGCGUGGCAAAGUGGCUCUGGCAAGAAUGCC [A11U G33C U38A C42A], the self-cleavage was determined as 0.03.

Turning to GGCAGAGCUCACCAAAGCGUGGGAAAGUGGCUGUGGCUAGGCUGCC [A12C C15A C23G A41G], the self-cleavage is 0.

GGCAGAGCUCUACACAGCGUGGCAAAGUUGCUGUGGCUAAACUGCC [A11U G29U G40A]: the self-cleavage came out at 0.03.

On to GGCAGAGCUCUACACAGCGUGGCAAAGUUGCUGUGGCUAUACUGCC [A11U G29U G40U], for which the self-cleavage was 0.52.

As for GGCAGAGCUCUACACAGCGUGCGAAAGUGGCUGUGGCUAGACUGCC [A11U G22C C23G], the self-cleavage came out at 0.05.

Consider GGCAGAGCUCACCGCAGCGUUGCAAAGUGGCUGUGGCUAGACUGCC [A12C A14G G21U], for which the self-cleavage is 0.

Turning to GGCAGAGCUCACCCCAGAGUGGCAAAGUGGCUGUGGCUAGACGGCC [A12C A14C C18A U43G], the self-cleavage was 0.03.

As for GGCAGAGCUCUACACAGCGUGGCAAAGUGGCUGGGGCUAGACUGGC [A11U U34G C45G], the self-cleavage came to 0.01.

GGCAGAGCUCACCACAGCGUGGCAGAGUGGCUGUGGAUAGACUGCC [A12C A25G C37A]: the self-cleavage amounted to 0.

Take GGCAGAGCUCACAACAGCGUGGCAAACUGGCUGUGGCAAGACUGCC [A12C C13A G27C U38A]: the self-cleavage is 0.02.

In the case of GGCAGAGCUCACCACAGCGUGGCCAAGUGGCUGUGGUUAGACUGCC [A12C A24C C37U], the self-cleavage turned out to be 0.

For the variant GGCAGAGCUCACCACAGCGUGGCAAUGUGGCUGUAGCUAGACUGCC [A12C A26U G35A], the self-cleavage was 0.02.

As to GGCAGAGCUCUACACAGCGUGGCAAAGUGGCUGUGGCAAGACCGCC [A11U U38A U43C], the self-cleavage was 0.01.

Consider GGCAGAGCUCACCACAGCGUGGUAAAGUGGCUGUGGCUAUAUUGCC [A12C C23U G40U C42U], for which the self-cleavage stood at 0.04.

On to GGCAGAGCUCACCACAGCGUGGCAAAGUGGCUGUGGCUAGACUGAA [A12C C45A C46A], for which the self-cleavage was 0.03.

On to GGCAGAGCUCUACACAGCGUGGCAAAGUGGCUGUGGCUAUACAGCC [A11U G40U U43A], for which the self-cleavage was 0.

In the case of GGCAGAGCUCUACACAGCGUGGCAAAGUUGCUGUGGCUUGACUGCC [A11U G29U A39U], the self-cleavage worked out at 0.03.

As for GGCAGAGCUCACAACAGCGUGGCAAAGUGGCUGUGGCUAGACUGCA [A12C C13A C46A], the self-cleavage turned out to be 0.02.

For the variant GGCAGAGCUCUACACAGCGUGGUGUAGUGGCUGUGGCUAGAUUGCC [A11U C23U A24G A25U C42U], the self-cleavage amounted to 0.04.

The record behind these values is the RNAGym collection of RNA variant scans (doi:10.7554/elife.90254).
